{
  "source": "PubChem BioAssay AID1346428",
  "about": "(National Center for Advancing Translational Sciences (NCATS), 2018)",
  "note": "Values joined by “and” are separate entries in the source; they are usually repeats but may differ in a detail not shown here. Identical values can stand only once. In all, about 48,000 compounds went through this assay and about 1,200 (2.5%) were called active. Inconclusive results (about 2%) are left out.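 Rule for the calls: active = activation of at least 60% and not above a set upper limit (about 1 call in 100 departs from these limits); inconclusive = activation of 40% to 60%, or above that upper limit; inactive = activation under 40%.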 The list shows a part of the results.",
  "data": [
    {"biological_target": "Probable G-protein coupled receptor 32 (Homo sapiens) (UniProt O75388)", "sequence (O75388 whole entry, looked up, the tested form may be a part)": "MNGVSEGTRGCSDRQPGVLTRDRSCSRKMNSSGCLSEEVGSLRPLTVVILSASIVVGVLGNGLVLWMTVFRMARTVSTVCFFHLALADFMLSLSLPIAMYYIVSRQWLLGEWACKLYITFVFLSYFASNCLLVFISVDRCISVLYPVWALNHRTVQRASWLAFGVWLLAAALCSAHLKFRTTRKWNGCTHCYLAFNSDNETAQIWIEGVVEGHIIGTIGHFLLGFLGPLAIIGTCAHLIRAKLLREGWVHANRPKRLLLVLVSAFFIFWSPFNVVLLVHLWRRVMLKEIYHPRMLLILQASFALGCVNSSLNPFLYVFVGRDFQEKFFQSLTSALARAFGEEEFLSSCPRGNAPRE", "assay": "qHTS for Agonists of Human Resolvin D1 Receptor DRV1; note: 0% is about no effect", "conditions": "CHO-K1 GPR32 beta-arrestin PathHunter luminescence, 90 min; at 76.9 µM; active compounds read high; zero percent set by DMSO-only wells", "method_in_brief": "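Agonism was scored by beta-Gal fragment complementation (chemiluminescent read, 1 h detection at ambient temperature) reporting beta-arrestin binding to GPR32 in engineered CHO-K1 cells. Compound treatment lasted 90 min at 37 C, normalized to a DMSO basal control.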", "values": [
      {"smiles": "O=C(CCc1cn(Cc2ccccc2Cl)c2ccccc12)NC1CCCCC1", "activation": "inactive: -14.2%"},
      {"smiles": "CC(C)CC(=O)Nc1ccc(S(=O)(=O)Nc2cc3c(cc2N2CCOCC2)n(C)c(=O)c(=O)n3C)cc1", "activation": "inactive: 1.84%"},
      {"smiles": "Cc1ccc(NC(=O)c2cn3c4c(ccc(Cl)c4c2=O)OC(C)C3)c(C)c1", "note": "(configuration not stated)", "activation": "inactive: 9.11%"},
      {"smiles": "COc1ccc(-n2ncc(C(=O)N3CCN(c4ncccn4)CC3)c2C2CCN(C(=O)OC(C)(C)C)CC2)cc1", "activation": "inactive: -0.907%"},
      {"smiles": "Cc1nc2sccn2c(=O)c1CCN1CCC(=C(c2ccc(F)cc2)c2ccc(F)cc2)CC1", "activation": "inactive: 13.1% and inactive: -17.6%"},
      {"smiles": "Cc1ccccc1Nc1c(-c2ccc(Cl)s2)nc2c(C)cccn12", "activation": "inactive: -19%"},
      {"smiles": "COc1ccc(CNC(=O)c2cc(-c3cccc(Cl)c3)on2)cc1", "activation": "active: 65.9%"},
      {"smiles": "CCOc1ccccc1NC(=O)Cn1c(=O)n(CCCC(=O)NCCc2ccc(C)cc2)c(=O)c2ccccc21", "activation": "inactive: 5.41%"},
      {"smiles": "COc1ccc(-c2c(C)c3cc(OC(=O)N4CCOCC4)ccc3oc2=O)cc1", "activation": "inactive: 8.2%"},
      {"smiles": "CC(C)(C)OC(=O)N1CCC(c2c(C(=O)NCCCN3CCc4ccccc4C3)cnn2-c2ccccc2)CC1", "activation": "inactive: -32.9%"},
      {"smiles": "Cc1ccc(N2CC(NC(=O)c3ccc(S(=O)(=O)N4CCCC4)cc3)CC2=O)cc1", "note": "(configuration not stated)", "activation": "inactive: -3.96%"},
      {"smiles": "COc1ccc(OC)c(NC(=O)CCc2c(C)nn(-c3ccc(N4CCCC4)nn3)c2C)c1", "activation": "inactive: -8.69%"},
      {"smiles": "C[C@H](CCC(=O)O)[C@H]1CC[C@H]2[C@@H]3C(=O)C[C@@H]4CC(=O)CC[C@]4(C)[C@H]3CC(=O)[C@]12C", "activation": "inactive: -4.38%"},
      {"smiles": "CC(C)c1ccc(NC(=O)c2ccc3c(c2)CCCN3S(C)(=O)=O)cc1", "activation": "inactive: 31.9%"},
      {"smiles": "O=C(Nc1ccc2c(c1)CCCN2C(=O)c1cccs1)c1c(F)cccc1F", "activation": "inactive: 4.26%"},
      {"smiles": "COc1ccc(-c2nc(C)c(CCNC(=O)C(=O)Nc3c(C)cccc3C)s2)cc1OC", "activation": "active: 70%"},
      {"smiles": "O=C(Cn1cc(SCc2ccccc2)c2ccccc21)N1CCCCC1", "activation": "inactive: -16.1%"},
      {"smiles": "CSc1ccc(CNC(=O)C2CCN(c3nnc(-n4cccc4CNc4ccc(C)cc4)s3)CC2)cc1", "activation": "inactive: -35.9%"},
      {"smiles": "N#Cc1c(-n2ncnc2-c2ccc(Br)cc2)sc2c1CCCCC2", "activation": "inactive: -1.43%"},
      {"smiles": "COc1ccc(OC)c(CCNC(=O)C2CCN(c3ncnc4c3nc3n4CCCCC3)CC2)c1", "activation": "inactive: 4.68%"},
      {"smiles": "CCc1ccc(CNC(=O)CN(c2ccc(C)cc2)S(=O)(=O)N(C)C)cc1", "activation": "active: 87.2%"},
      {"smiles": "O=C(Nc1nnc(S(=O)(=O)N2CCCC2)s1)c1ccccc1Br", "activation": "inactive: 41.3%"}
    ]}
  ]
}
